# From PubChem BioAssay AID488969 (Vanderbilt High Throughput Screening Facility, 2010)
# Over roughly 110,000 compounds, “z-score” has its median near -0.1; the highest 2% begin near 2. This is one part of the list.
# Molecular target: Metabotropic glutamate receptor 8 (Rattus norvegicus) (UniProt P70579)
# Test: mGluR8 Gi/Go-coupled signaling modulation – cell-based, rat, thallium flux, HTS, primary screen (AID 488969)
# Settings: HEK293 rat mGluR8, GIRK (G protein-gated inwardly rectifying potassium channel) thallium flux, FluoZin2; at 10 µM; stronger effect = higher value; submaximal glutamate (EC20) added with thallium
# Chain of UniProt P70579 (P70579 whole entry, looked up): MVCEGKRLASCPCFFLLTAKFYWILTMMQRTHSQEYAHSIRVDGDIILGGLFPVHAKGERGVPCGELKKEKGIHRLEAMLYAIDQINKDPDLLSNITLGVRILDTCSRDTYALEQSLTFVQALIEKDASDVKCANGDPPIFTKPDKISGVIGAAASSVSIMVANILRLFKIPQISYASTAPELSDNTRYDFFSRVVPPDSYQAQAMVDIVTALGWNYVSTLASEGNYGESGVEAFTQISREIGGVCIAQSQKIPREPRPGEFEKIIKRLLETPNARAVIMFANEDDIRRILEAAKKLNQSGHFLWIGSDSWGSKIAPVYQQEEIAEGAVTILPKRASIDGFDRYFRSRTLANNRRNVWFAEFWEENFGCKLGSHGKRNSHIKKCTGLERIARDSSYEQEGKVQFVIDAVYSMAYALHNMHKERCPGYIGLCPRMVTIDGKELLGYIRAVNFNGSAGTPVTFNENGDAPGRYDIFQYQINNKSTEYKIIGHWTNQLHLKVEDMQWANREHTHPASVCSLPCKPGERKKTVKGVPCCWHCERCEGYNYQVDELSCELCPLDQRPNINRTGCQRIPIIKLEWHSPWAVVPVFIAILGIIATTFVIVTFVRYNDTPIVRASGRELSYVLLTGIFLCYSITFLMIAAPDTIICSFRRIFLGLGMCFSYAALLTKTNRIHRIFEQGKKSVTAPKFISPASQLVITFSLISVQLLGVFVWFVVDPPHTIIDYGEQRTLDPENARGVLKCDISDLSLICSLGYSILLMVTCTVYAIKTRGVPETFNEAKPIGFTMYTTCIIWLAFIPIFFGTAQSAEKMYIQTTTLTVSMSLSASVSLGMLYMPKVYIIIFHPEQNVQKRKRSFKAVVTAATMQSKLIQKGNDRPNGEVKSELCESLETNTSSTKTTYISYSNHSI
row,SMILES,z-score
1,CC1CCN(C(=O)N2c3ccccc3Sc3ccccc32)CC1,-0.145
2,CCCOc1ccccc1Cn1c(=O)oc2ccc(C)cc21,-0.77
3,Cc1ccsc1/C=C1/SC(=O)N(CC(=O)N2CCOCC2)C1=O,-0.261
4,COc1ccc(C2C(C(C)=O)=C(O)C(=O)N2c2cccnc2)cc1OC (configuration not stated),-0.114
5,CC1(C)C(=O)C2(CCCCC2)C(=O)OC1c1cccc([N+](=O)[O-])c1 (configuration not stated),-0.0475
6,CC(C)(C)NC(=O)NC(=O)COC(=O)CCC1CCCCC1,-0.148
7,O=C(Nc1nccs1)c1ccccc1N=Cc1ccccc1,-0.374
8,CCOC(=O)c1cc(-c2ccccc2)nn1-c1ccccn1,-0.628
9,COc1cccc(C(=O)NC2CCN(CC(=O)NCc3ccccc3OC)CC2)c1,-0.149
10,CCCCNCc1cc(Br)c(OCc2cccs2)c(OC)c1,0.46
11,Cc1onc(-c2ccccc2Cl)c1C(=O)NCc1nc(-c2ccccc2)no1,0.369
12,Cc1ccc(S(=O)(=O)N(C)CC(=O)NCc2ccncc2)cc1,-0.281
13,Cc1cc(C(F)F)n2nc(C(=O)Nc3cccc(C(F)(F)F)c3)nc2n1,1.01
14,Cc1cc(=O)n(CC(C)O)c(O)c1C#N (configuration not stated),0.114
15,COC(=O)NCc1ccc(CNC(=O)OC)cc1,0.229
16,Cc1cccc(OCCn2c(S(=O)(=O)O)nc3ccccc32)c1,0.0442
17,FC(F)(F)c1cccc(N2CCN(C(=S)NC3CCCC3)CC2)c1,0.19
18,OC(COc1ccc2c(c1)CCC2)CN1CCN(c2ccccc2F)CC1 (configuration not stated),-0.226
19,CSc1nnc(C)c(/C=C/Nc2ccc(Cl)cc2)n1,-0.383
20,CC(C)n1nnnc1-c1cc(Cl)cc(Cl)c1,-0.494
21,CCCc1cc(=O)[nH]c(SCC(=O)NC)n1,-0.135
22,Cc1cc(S(=O)(=O)Nc2c(C)ccc3nsnc23)ccc1F,-0.125
23,COc1cc(NC(=O)CCCSc2nc(-c3ccco3)cc(C(F)(F)F)n2)cc(OC)c1OC,-0.781
24,Cc1ccc(-n2nnnc2SCC(=O)Nc2sccc2C#N)cc1,-0.169

row,SMILES,z-score
1,O=C(NC1CCCCC1)N1CCCC(c2nc3ccccc3[nH]2)C1 (configuration not stated),-0.00279
2,Cn1nnc(NC(=O)c2ccccc2)n1,0.0693
3,Cc1oc(-c2ccccc2)nc1CS(=O)CC(=O)O (configuration not stated),2.52
4,COCCCNC(=O)CC(NS(=O)(=O)c1ccc(Cl)cc1)c1ccco1 (configuration not stated),0.722
5,CCN=C1SC(CC(=O)Nc2ccc(C)cc2)C(=O)N1CC (configuration not stated),0.139
6,O=C(NNc1ccccc1[N+](=O)[O-])Nc1ccc(Cl)c(Cl)c1,0.929
7,CC(C)N(Cc1nc(-c2ccccc2)no1)C(=O)C1CCCCC1,-0.405
8,O=C(c1cc2c(s1)CCC2)N1CCN(c2ccccc2)CC1,-0.0558
9,CCOc1ccccc1N(CC(=O)NC1CCCC1)C(=O)CCC(=O)Nc1cc(C)on1,0.654
10,Cc1ccccc1OCC(=O)NC(=S)Nc1ccc(S(=O)(=O)NC2CCCCC2)cc1,0.718
11,Cc1csc(NC(=O)CN(C)S(=O)(=O)c2cccc3cccnc23)n1,-0.428
12,O=C(CNC(=O)c1ccccc1)NCC(=O)OCC(=O)c1ccc([N+](=O)[O-])cc1,0.155
13,CN(C)C(=O)/C(=C/c1cn(-c2ccccc2)nc1-c1cccc([N+](=O)[O-])c1)NC(=O)c1ccccc1,-1.44
14,Cc1cc(NC(=O)c2ccc3c(c2)C(=O)N(C2CCCCC2)C3=O)no1,0.19
15,CN1c2ccccc2-c2nc3ccccc3n2C1c1ccco1 (configuration not stated),-1.33
16,CCOc1ccccc1NC(=O)C(OC(=O)c1cc(C)oc1C)c1ccccc1 (configuration not stated),-1.37
17,CN1C(=O)N(C)C2(c3ccccc3)N(C)C(=O)NC12c1ccccc1 (configuration not stated),-0.266
18,Cc1ccc(C)n1-c1nccc(-c2cccs2)n1,-0.268
19,O=C(/C=C/c1ccc2ccccc2c1)c1ccoc1,-0.115
20,O=C1CC(N2CCC(c3nc4ccccc4o3)CC2)C(=O)N1c1cc(Cl)cc(Cl)c1 (configuration not stated),-0.192
21,CC(=O)c1ccc(N2CCN(C(=O)c3ccco3)C(C)C2)c(F)c1 (configuration not stated),-0.0646
22,CC(C)CC(=O)Nc1ccc2c3c(cccc13)CC2,-0.379
23,CCn1c(SCC(=O)c2cccs2)nnc1-c1cccs1,-0.141
24,O=C1CCCN1c1ccc(S(=O)(=O)NCCOc2ccccc2)cc1,-0.0832

row,SMILES,z-score
1,CC(=O)c1n[nH]nc1NC(=O)c1ccccc1,-1.16
2,O=[N+]([O-])c1cccc(-c2nc(-c3cccs3)c(-c3cccs3)[nH]2)c1,-0.4
3,C=CCc1ccccc1OCC(O)CN1CCN(c2ccc(OC)cc2)CC1 (configuration not stated),-0.287
4,O=C(c1coc2ccc(O)cc12)C1CC1,-0.173
5,COc1cc(/C=C2/C(=N)N3C=CSC3=NC2=O)ccc1OCCCOc1cc(C)ccc1C,0.124
6,O=C(CSc1nnnn1-c1ccc(F)cc1)Nc1ccc(N2CCOCC2)c(Cl)c1,0.153
7,COc1ccccc1NC(=O)Oc1ccc(NC(=O)c2ccco2)cc1,0.271
8,O=C1CC(c2ccc(Cl)cc2)SC(N(c2ccccc2)c2ccccc2)=N1 (configuration not stated),0.267
9,CC12CCC(C(=O)NCc3ccc4c(c3)OCO4)(CC1=O)C2(C)C (configuration not stated),0.354
10,CS(=O)(=O)N(CCc1ccccc1)CC(=O)NCc1ccco1,0.307
11,COC(=O)C1CSC(C(=O)OC)N1C(=O)Nc1ccc(Cl)c(Cl)c1 (configuration not stated),-0.332
12,O=C(Nc1nccs1)c1cc(N2CCOCC2)nc2ccccc12,0.394
13,O=C(Cc1ccccc1)Nc1nc(-c2cccc([N+](=O)[O-])c2)cs1,-0.155
14,COc1ccc2[nH]cc(CCN3C(=O)CCC3=O)c2c1,-0.139
15,O=C(NC12CC3CC(CC(C3)C1)C2)c1ccc(-c2ccccc2Cl)o1,-0.0589
16,Cc1ccc(C(C(=O)NC2CCCC2)N(Cc2ccco2)C(=O)CCC(=O)Nc2cc(C)on2)cc1 (configuration not stated),-0.35
17,Cc1cc(C)c2cc3c(N)c(C(=O)Nc4c(C)[nH]c(=O)[nH]c4=O)sc3nc2c1,0.535
18,COCCN(CCOC)C(=O)C12CCC(C)(C(=O)C1)C2(C)C (configuration not stated),-0.0902
19,COc1cccc(N2CCN(c3ncccn3)CC2)c1,-0.0204
20,O=C(NCc1cccnc1)NC1(c2ccccc2)CC1,-0.204
21,Nc1ccc(C(=O)N/N=C/c2ccccc2)cc1,-0.0465
22,CCCC1S/C(=N/N=C/c2ccc(OC)cc2)N(Cc2ccccc2)C1=O (configuration not stated),-0.0593
23,CCOC(=O)c1ccc(N=C2C(=S)N(c3ccc(C(=O)OCC)cc3)C(=N)N2/N=C/c2ccccc2)cc1,-0.129
24,O=C(Cc1ccccc1)Nc1c(C(=O)N2CCCCCC2)cnn1-c1ccccc1,-0.477
